Our source for the IC50 values is PubChem BioAssay AID1963843 (Molecular Pharmacology Branch, DTP, NCI, 2024).

For part of its entries the source gives two or more results. The list is limited to them. An entry can have further records. The records of an entry repeat one measurement (runs, samples, wells, individuals or studies). Marks such as [2022-09] give the month of the run. Where only a bound is given, the exact number is not on record here.
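Also: spheroids exposed to compounds for one week before readout.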

The experiment has as its system 616215-338-R-J1-PDC complex spheroid viability. Kind of experiment: Anticancer human tumor 616215-338-R-J1-PDC patient-derived colon adenocarcinoma cell line growth inhibition [POLQ]. Conditions: compound alone. As for the experimental part: Multicellular complex tumor spheroid response to Polymerase (POL) inhibitors (novobiocin, ART-558, RP6685) in combination with a variety of drugs and investigational agents in selected tumor cell lines
The POL inhibitors (novobiocin, ART-558, and RP6685) were evaluated both individually and in combination with standard of care and investigational anticancer small molecules within a complex spheroid model of solid tumors. . Complex spheroids include a stromal component modeled by human endothelial cells (HUVEC) and fibroblasts modeled by human mesenchymal stem cells (MSCs). The concentration ranges selected for each drug and investigational agent were based upon clinically achievable concentrations if the clinical Cmax of the agent was known.
Compounds. The drugs and investigational agents: novobiocin (NSC847541), ART-558 (NSC835418), RP-6685 (NSC848927), peposertib (NSC802822), ceralasertib (NSC780249), elimusertib (NSC800525), camonsertib (NSC841442), AZD-1390 (NSC803789), olaparib (NSC753686), talazoparib (NSC767125), rucaparib (NSC756644), sotorasib (NSC818433), MRTX-1133 (NSC836407), SN-38 (NSC673596), topotecan (NSC609699), epotoside (NSC141540), doxorubicin (NSC123127), gemcitabine (NSC613327), 5-fluorouracil (NSC19893), paclitaxel (NSC125973), vemurafenib (NSC761431), MSA-2 (NSC828583), SN-011 (NSC837082), adavosertib (NSC754352), prexasertib (NSC758257), carboplatin (NSC241240) and oxaliplatin (NSC266046), were obtained from the National Cancer Institute (NCI) Developmental Therapeutics Program Chemical Repository (21). The FDA-approved anticancer drug set is available from the Developmental Therapeutics Program at https://dtp.cancer.gov/organization/dscb/obtaining/. […] The stock solutions were prepared in dimethyl sulfoxide (DMSO, Sigma-Aldrich, St. Louis, MO, cat. D2650), except for the platinum compounds which were prepared in saline (Quality Biological, Gaithersburg, MD, cat. 114-055-101), at 800-fold the tested concentration and stored at -70 degrees C prior to their use. All drugs and investigational agents were tested over a range starting from a high concentration at or near the clinical Cmax and decreasing in half-log increments. If the clinical Cmax for an agent had not been determined, the highest concentration tested was 10 microM, except for SN-38, which was tested at a high concentration of 1 microM.
Cell Culture. All cells were maintained in an incubator at 37 degrees C and 5% CO2 with 95% humidity. The PDC lines were cultured according to standard operating procedures established by the NCI PDMR (https://pdmr.cancer.gov). Table 3 of the manuscript, lists the cell lines along with the number of the three cell types plated to form the mct-spheroids and media for tumor cell growth. […]
Turning to `CC1COCCN1c1cc(C2(O)CC3CCC(C2)O3)c2cnn(-c3ccn[nH]3)c2n1` (centres undefined), the half-maximal inhibitory concentration (IC50) (as a rule, the concentration needed to halve the response being measured) was 1.55 µM, 4.9 µM [2023-11] and 305 nM [2023-12].

`CCc1c2c(nc3ccc(O)cc13)-c1cc3c(c(=O)n1C2)COC(=O)[C@]3(O)CC`: the IC50 was 100 nM, 96.2 nM [2023-11] and 9.77 nM [2023-12]. The same measure for `O=c1[nH]cc(F)c(=O)[nH]1`: > 10 µM [2023-11] and 506 nM [2023-12]; for `CC1COCCN1c1cc(-c2ccnn2C)c2ccnc(-c3ccn[nH]3)c2n1` (centres undefined): 792 nM, 2.7 µM [2023-11] and 208 nM [2023-12].
